Experimental data: PubChem BioAssay AID488969 (Vanderbilt High Throughput Screening Facility, 2010)
In all, about 110,000 compounds were measured (“z-score”: median about -0.1, highest 2% from about 2 on). This is one part of the list. Active and inactive are the calls of the source.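 Rule for the calls: active = z-score in the third read window above 3 or below -3; inactive = the rest.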

The compounds below were run against Metabotropic glutamate receptor 8 (Rattus norvegicus) (UniProt P70579) (assay: mGluR8 Gi/Go-coupled signaling modulation – cell-based, rat, thallium flux, HTS, primary screen (AID 488969)). Settings: HEK293 rat mGluR8, GIRK (G protein-gated inwardly rectifying potassium channel) thallium flux, FluoZin2; at 10 µM; stronger effect = higher value; submaximal glutamate (EC20) added with thallium.
Chain of UniProt P70579 (P70579 whole entry, looked up): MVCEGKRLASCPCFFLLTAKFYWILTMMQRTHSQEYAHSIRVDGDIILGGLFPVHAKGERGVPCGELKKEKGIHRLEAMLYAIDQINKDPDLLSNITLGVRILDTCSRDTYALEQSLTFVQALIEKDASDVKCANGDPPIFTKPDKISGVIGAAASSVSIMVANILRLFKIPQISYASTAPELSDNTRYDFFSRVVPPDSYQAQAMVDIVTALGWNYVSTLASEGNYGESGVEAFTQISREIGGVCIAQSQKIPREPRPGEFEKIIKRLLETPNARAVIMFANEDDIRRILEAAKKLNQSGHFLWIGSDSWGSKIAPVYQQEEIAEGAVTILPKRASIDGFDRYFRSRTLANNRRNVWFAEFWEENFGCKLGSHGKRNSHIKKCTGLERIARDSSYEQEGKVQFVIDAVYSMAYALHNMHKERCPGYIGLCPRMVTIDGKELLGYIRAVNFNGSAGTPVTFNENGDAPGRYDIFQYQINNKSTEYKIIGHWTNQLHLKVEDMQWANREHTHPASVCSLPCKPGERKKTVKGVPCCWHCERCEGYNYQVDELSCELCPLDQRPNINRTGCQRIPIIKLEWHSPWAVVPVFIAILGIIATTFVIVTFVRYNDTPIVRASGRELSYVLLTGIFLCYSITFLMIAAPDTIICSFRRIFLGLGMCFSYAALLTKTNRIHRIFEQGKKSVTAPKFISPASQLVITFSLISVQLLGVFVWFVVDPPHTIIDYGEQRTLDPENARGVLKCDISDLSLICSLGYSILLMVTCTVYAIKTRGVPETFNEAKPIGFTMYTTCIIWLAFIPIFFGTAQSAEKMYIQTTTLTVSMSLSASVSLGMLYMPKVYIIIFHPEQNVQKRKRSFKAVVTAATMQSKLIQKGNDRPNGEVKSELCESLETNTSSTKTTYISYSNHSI
Work on `O=C(Nc1cnc2sccn2c1=O)c1ccc(Cl)cc1Cl` yielded a z-score of -0.557. With `CCN(CC)CCNC(=O)c1ccc(Cl)c(S(=O)(=O)Nc2ccccc2OC)c1` the z-score was 0.323. With `O=C(/C=C/c1c[nH]c2ccccc12)c1ccccc1` the z-score was -0.249. `Cc1ccc(C)c(NC(=O)CN(C)S(=O)(=O)c2ccc(F)cc2)c1` was tested, and the z-score was -0.249. In the case of `CCC(Sc1nccn1C)C(=O)Nc1nnc(C)s1` (stereo unspecified), the z-score is reported as 0.19. In the case of `O=C(Nn1c(-c2ccc(F)cc2)nc2ccccc2c1=O)C1CCCCC1`, the z-score is reported as -0.0877. `O=C(CN1C(=O)C2C3C=CC(C3)C2C1=O)N1CCc2ccccc2C1` (stereo unspecified) was tested, and the z-score was 0.165. With `C=C(C)CNC(=S)Nc1nc2c(cc1C(=O)OCC)CCCC2` the z-score was active: 3.56. Compound `O=C(CN1CCc2ccccc2C1)Nc1ccccc1N1CCCCCC1` has a z-score of -0.0328. `CC1CCN(C(=O)c2cc3ccccc3c(=O)o2)CC1` gave a z-score of -0.113. `O=C1C=C(NCc2ccccc2)CCC1` gave a z-score of -0.0868. With `COc1ccc(-n2nnnc2SCC#CCO)cc1` the z-score was 1.38. With `C/C(=N\NC(=O)c1csc(C)c1C)c1ccc(Cl)s1` the z-score was active: 3.54. With `O=C(CSc1ncnc2c1oc1ccccc12)Nc1ccccc1F` the z-score was -0.443. In the case of `CC(C)CC(=O)c1c[nH]c(C(=O)NCc2cccs2)c1`, the z-score is reported as 0.0742. Work on `FC(F)Oc1ccc(NC(=S)NCC2COc3ccccc3O2)cc1` (stereo unspecified) yielded a z-score of -0.143. `O=C(CC12CC3CC(CC(C3)C1)C2)NCC(=O)N1CCCC1` showed a z-score of 0.463. With `O=C(COc1ccccc1)N1CCN(c2ccc([N+](=O)[O-])c(N3CCCCC3)c2)CC1` the z-score was -2.37. With `CC1CN(S(=O)(=O)c2cccc(C(=O)OCc3cc(=O)oc4cc(O)ccc34)c2)CC(C)O1` (stereo unspecified) the z-score was -0.0274. Compound `CCCN1CCC(NC(=S)Nc2ccc(C(=O)OCC)cc2)CC1` has a z-score of -0.26. Compound `COc1ccc(C(=O)C2C(c3ccc(-c4ccccc4[N+](=O)[O-])o3)NC(=O)NC2(O)C(F)(F)F)cc1` (stereo unspecified) has a z-score of -2.8. Work on `CCc1cccc(CC)c1N1C(=O)c2cc(N3CCOCC3)c([N+](=O)[O-])cc2C1=O` yielded a z-score of 0.0545. `CC(C)N(Cc1ccccc1)C(=O)c1cnc2n(c1=O)CCS2` gave a z-score of 0.707. Compound `O=C(Nc1ccc(Cc2ccncc2)cc1)c1ccco1` has a z-score of 0.429. Compound `Cc1nnc(SCc2ccc(F)cc2Cl)s1` has a z-score of -0.295. For `CC(=O)C1C(c2ccc(F)cc2)NC(=O)NC1(O)C(F)(F)F` (stereo unspecified), the z-score was -0.0816. Compound `Cc1ccc(NC(=O)CCSc2nnc(Cc3ccccc3)o2)cc1` has a z-score of 0.339. Compound `CC12CCC(C(=O)N3CCCCCC3)(OC1=O)C2(C)C` (stereo unspecified) has a z-score of -0.477. `CCC(OC(=O)c1ccco1)C(=O)NCc1ccco1` (stereo unspecified) gave a z-score of 0.119. `O=C(NCCCn1ccnc1)c1cc(C(=O)C2CC2)c[nH]1` gave a z-score of -0.343. For `COCCN1Cc2cccc(C(=O)Nc3cccc(OC)c3)c2C1=O`, the z-score was -0.444. `Cc1ccc2cc(C(c3nnnn3Cc3ccccc3)N3CCN(c4ccccc4)CC3)c(=O)[nH]c2c1` (stereo unspecified) gave a z-score of 0.483. With `Cc1ccc(C(=O)N[C@H](C(=O)OCC(=O)NC2CCS(=O)(=O)C2)C(C)C)cc1` (stereo partly specified) the z-score was -0.0806. With `CN(C)CCCNC(=O)c1cc2c3ccccc3n(C)c2s1` the z-score was 0.817. Work on `Cc1c(Cl)ccc2c1NC(=O)[C@]21N[C@@H](Cc2ccccc2)[C@H]2C(=O)N(c3ccc(F)cc3)C(=O)[C@H]21` yielded a z-score of -0.433. `Brc1ccc2nc(CSc3ncn[nH]3)cn2c1` gave a z-score of -0.0244. `Cn1c(SCc2nc(-c3ccc(Br)cc3)no2)nnc1-c1ccco1` was tested, and the z-score was 0.101. Compound `Cc1cc(Cl)c(OCCOCCN2CCCCC2)c(Br)c1` has a z-score of 0.276. `C=CCNC(=O)c1onc(CSc2ccccc2CC)c1C(=O)O` gave a z-score of -1.59. `CC(C)NC(=O)c1ccc(Sc2ccccc2)c([N+](=O)[O-])c1` gave a z-score of -0.477. For `O=C1NC(=O)/C(=C\c2ccccc2OCc2ccc([N+](=O)[O-])cc2)N1`, the z-score was -0.176. `CCCCCOc1ccc(CSC(=N)N)cc1[N+](=O)[O-]` was tested, and the z-score was 1.82. `Cc1cc(C(=O)N/N=C/c2ccc(-c3ccccc3Cl)o2)n[nH]1` showed a z-score of -0.496. Compound `CN1CCN(C(=O)c2ccc(CS(=O)(=O)c3c(Cl)cccc3Cl)o2)CC1` has a z-score of 0.504. `Cc1ccc(Cn2c(NCCc3ccccc3)nc3c2c(=O)n(C)c(=O)n3C)cc1` showed a z-score of -0.251. In the case of `C=CCn1c(SCC(=O)NC(C)(C)C)nnc1-c1ccccc1O`, the z-score is reported as -0.227. `O=C(Nc1cccnc1)C1CC(c2ccc(Cl)c(Cl)c2)=NO1` (stereo unspecified) showed a z-score of -0.465. With `COC(=O)c1cc(=O)nc2sc(-c3ccc(F)cc3)nn12` the z-score was -0.167. Compound `O=C(Cn1nc(-c2ccc(N3CCOCC3)c([N+](=O)[O-])c2)c2ccccc2c1=O)N1CCCCC1` has a z-score of -0.108. `COc1ccc(C2C(C(=O)NCCN3CCOCC3)c3ccccc3C(=O)N2C2CCCCC2)cc1` (stereo unspecified) gave a z-score of -0.415. For `Cc1ncc(CO)c(/C=N/N=C/c2ccccc2O)c1O`, the z-score was -0.291. With `Cc1ccc(C)c(-n2ccnc2SCC(=O)O)c1` the z-score was -0.0351. With `Cc1cccc2cc(CN(CCCO)C(=O)Nc3cccc(Cl)c3)c(=O)[nH]c12` the z-score was 0.85. For `Cc1ccc(/C(N)=N/OC(=O)Cc2cccs2)cc1`, the z-score was 0.139. With `Cc1cc(OCCN2CCCCC2)nc2ccccc12` the z-score was 0.234. For `CCC(c1nnnn1Cc1cccs1)N1CCN(C2CCCC2)CC1` (stereo unspecified), the z-score was -0.61. `Fc1ccc(CSc2nncn2NCc2ccc3c(c2)OCO3)cc1` was tested, and the z-score was -0.101. `Cc1ccccc1N1CCN(C(=O)C2CCCCC2)CC1` was tested, and the z-score was 0.284. With `CC1(C)Cc2c(sc3nc4n(c(=N)c23)CCCCC4)CO1` the z-score was -0.582. `CCOc1ccc(NC2=C(Cl)C(=O)N(C3CCCCC3)C2=O)cc1` was tested, and the z-score was -0.288. `Cc1ccc(C(C(=O)NC2CCCCC2)N(Cc2ccco2)C(=O)C2COc3ccccc3O2)o1` (stereo unspecified) was tested, and the z-score was 1.12. `Cc1cccc(NC(=O)CSc2nnc(-c3ccco3)c(-c3ccco3)n2)c1C` showed a z-score of -0.415. `CN(C)S(=O)(=O)c1ccc(C(=O)NCCOc2ccc(F)cc2)cc1` gave a z-score of 0.0591. `OC(COc1ccc(Cl)cc1)CN1CCCCC1` (stereo unspecified) gave a z-score of 0.433. `CCC(Sc1nc(N)cc(N)n1)C(=O)O` (stereo unspecified) showed a z-score of -0.198. For `O=C(NNC(=O)c1ccccc1Br)c1ccc(Cl)c(Cl)c1`, the z-score was 0.926. In the case of `CC1CCN(S(=O)(=O)c2ccc(NC(=O)CN3CCN(C)CC3)cc2)CC1`, the z-score is reported as 0.193. With `CN1/C(=C\C(=S)NC(=O)c2ccc([N+](=O)[O-])cc2)C(C)(C)c2ccccc21` the z-score was 0.213. `S=c1[nH]nc(-c2cccnc2)n1-c1ccccc1` showed a z-score of 0.46. Compound `Cc1ccc(Cn2nnc3c(=O)[nH]c(C4CCN(S(=O)(=O)c5ccc(C)cc5)CC4)nc32)cc1` has a z-score of 0.0444. With `CCCCCSc1nc2c(c(=O)[nH]c(=O)n2C)n1C(C)C` the z-score was -0.464.
